The whole screen tested about 46,000 compounds, of which about 60 (0.1%) were called active. Inconclusive results (about 3%) are left out. Calls come from the whole dose curve; as a rule, active = well fitted inhibition curve with a large enough effect; inconclusive = small, poorly fitted or top-dose-only effect; inactive = no such curve, though single readings can be large or run the other way. The list shows a part of the results.
Test: Primary qHTS assay for Inhibitors of ovarian cancer metastasis using an organotypic tumor microenvironment (TME) model.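 For activity change, negative = inhibition: plate controls were DMSO wells for no effect and tomatine positive control wells for full effect.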 Note: nearly all actives have a fitted effect of over 65% in size.
Conditions: SKOV3ip1-GFP adhesion/invasion on 3D omental model, fluorescence; series mostly up to 45.8 µM; activity change, negative = inhibition: at the top concentration
In short: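 A 3D layer of primary human omental fibroblasts, mesothelial cells, fibronectin and collagen I, grown 48 hr, received SKOV3ip1-GFP cells in serum-free medium plus compounds at 0.36-46 umol/L. After 2 hr RT and 16 hr 37 C, fixed adherent GFP cells were counted; normalized to DMSO and tomatine.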

outcome, inactive:
O=C(Cn1ncc2c3ccccc3n(Cc3ccccc3)c2c1=O)NCCc1ccc(Cl)cc1
Cc1ccc(OCC(=O)Nc2ccc(OCc3cc(=O)n4ccsc4n3)cc2)cc1C
CCCCNC(=O)CCC(=O)NNc1nc2ccccc2c2nc(C)nn12
Cc1ccc(C(=O)N(Cc2ccc(N(C)C)cc2)CC2CCCO2)cc1 (stereo unspecified)
Cc1nn(C(C)C(=O)NCc2ccc(OC(C)C)cc2)c(=O)c2c1sc1ccccc12 (stereo unspecified)
Cc1c(Cl)cccc1NC(=O)c1cc(-c2ccc3c(c2)OCO3)on1
COc1ccc(N2CCN(C(=O)Nc3cn(CC(C)C)c(=O)c4ccccc34)CC2)cc1
CCOC(=O)CSc1nc2ccccc2c(=O)n1-c1ccc(C(=O)NCCOC)cc1
Cc1ccc(-n2ncc3c(NCCCn4ccnc4)ncnc32)cc1C
CCOc1ccc2nc(N3CCCC(C(=O)NCCc4ccc(Cl)cc4)C3)sc2c1 (stereo unspecified)
CSc1ccc(CCNC(=O)Cn2nc(C)n3c(cc4sccc43)c2=O)cc1
Cc1nn(CC(=O)NC2CC2)c(=O)c2cc3cc(F)ccc3n12
Cc1ccc(Cn2ccnc2SCC(=O)NCc2ccccc2)cc1
COc1cc(C2CC(=O)Nc3cc4c(cc32)OCO4)cc(OC)c1O (stereo unspecified)
COc1cccc(CNC(=O)C2CCCN(c3nnc(-n4c(C)ccc4C)s3)C2)c1OC (stereo unspecified)

Activity change, negative = inhibition, inactive:
Cc1ccc(NC(=O)Cn2c(=O)n(Cc3nc(-c4ccccc4)no3)c(=O)c3ccccc32)c(C)c1 7.04%
CCCCNc1nc2c(S(=O)(=O)c3ccc(Br)cc3)nnn2c2ccsc12 3.4%
CCC(=O)N1CCc2cc(S(=O)(=O)NC(Cc3ccccc3)C(=O)NCc3ccccc3)ccc21 (stereo unspecified) 10.1%
CCN(C(=O)CN1C(=O)c2ccccc2Sc2ccc(C(=O)OC)cc21)c1cccc(C)c1 -6.3%
CCCCC[C@H](O)C=C[C@H]1[C@H](O)CC(=O)[C@H]1CCCCCCC(=O)O -0.932%
CC(CCc1ccccc1)NC(=O)CSc1n[nH]c(-c2ccccc2)n1 (stereo unspecified) -1.66%
COc1ccccc1NC(=O)c1c(-c2ccc(C)cc2)nnc2ccccc12 9.93%
Cc1ccc(Nc2c(-c3ccccn3)nc3ccc(Br)cn23)cc1 2.77%
CCC(=O)N1CCc2cc(Br)cc(S(=O)(=O)N3CCCC(C(=O)Nc4ccc(C)c(F)c4)C3)c21 (stereo unspecified) -6.01%
O=C(Nc1cc(Cl)ccc1Cl)c1ccc2c(c1)N(Cc1cccc(Cl)c1)C(=O)c1ccccc1S2=O (stereo unspecified) -0.327%
O=C(NCc1cccs1)c1ccc2c(c1)sc1nc(-c3ccc(F)cc3)cn12 -21.7%
Cc1ccc2oc(C(=O)Nc3c(C(=O)Nc4cccc(Cl)c4)oc4ccccc34)cc(=O)c2c1 0.867%
COc1c(Cl)cc(C(=O)Nc2cc(-c3nc4ccccc4[nH]3)ccc2C)cc1Cl -7.21%
Cc1nn(-c2ccccc2)c(OC(=O)c2ccccc2)c1S(=O)(=O)c1ccccc1 5.23%
Cc1ccc(N2C(=O)CS(=O)(=O)C23C(=O)Nc2ccccc23)cc1C (stereo unspecified) 9.8%
O=C(Nc1ccccc1C(F)(F)F)N1CCOc2ccc(Cl)cc21 16%
Cc1ccccc1Cn1ccn(-c2ccc(F)c(F)c2)c(=O)c1=O -1.11%
CC(C)c1ccc(C2CC(=O)Nc3cc4c(cc32)OCCO4)cc1 (stereo unspecified) 25.7%
CN(Cc1nc(-c2ccc(Cl)cc2)no1)S(=O)(=O)c1ccccc1 -13.7%
CCOc1ccccc1-c1noc(CSc2nnc(-c3ccccc3)n2-c2ccc(OC)cc2)n1 -9.13%
CCOC(=O)N1CCC(NC(=O)c2ccc3c(c2)N(Cc2ccccc2C)C(=O)c2ccccc2S3=O)CC1 (stereo unspecified) 2.47%
CCOC(=O)N1CCc2c(sc3c2c(=O)n(-c2ccc(CC)cc2)c(=O)n3Cc2ccc(F)cc2Cl)C1 15.1%
COc1ccccc1N1CCN(C(=O)c2cc3c(=O)n(Cc4cccs4)ccc3nc2C)CC1 -4.35%
CCc1ccc(NC(=O)Cn2nnc(-c3ccccc3N)n2)cc1 2.83%
COc1ccc(N2CCN(CCCNC(=O)c3c(C)nn(-c4ccc(F)cc4)c3-n3cccc3)CC2)cc1 -9.32%
CCOc1ccc(NC(=O)Cn2nc(Cc3cccnc3)c3ccccc3c2=O)cc1 10.2%
COc1ccccc1NC(=O)N1CCN(c2ccc3nnc(-c4ccc(F)cc4)n3n2)CC1 7.71%
CC(C)C(=O)Nc1nnc(S(=O)(=O)N2CCc3ccccc32)s1 6.74%
Nc1nc2[nH]cc(CCc3ccc(C(=O)N[C@@H](CCC(=O)O)C(=O)O)cc3)c2c(=O)[nH]1 1.16%
Cc1cccc(N2CCN(c3ccc4cc(S(=O)(=O)N5CCC(C)CC5)ccc4n3)CC2)c1C -0.471%
CCOC(=O)c1c(NC(=O)Cc2coc3ccc(CC)cc23)sc2c1CCC2 -2.39%
Cc1ccc(OCC(=O)Nc2ccc(OCc3cc(=O)n4c(C)csc4n3)cc2)cc1C -7.62%
O=c1oc2ccccc2cc1-c1cn2cc(Cc3ccc(F)cc3)sc2n1 8.12%
CCc1ccc(NC(=O)CC(NCc2cccnc2)C(=O)O)cc1 (stereo unspecified) 7.76%
CCOC(=O)c1c(C)oc2ncnc(Nc3cccc(C(F)(F)F)c3)c12 4.35%
CCOC(=O)c1cccc(NC(=O)Cn2ncc3c(=O)oc4ccccc4c32)c1 6.15%
Cn1c(=O)c2c(nc(SCC(=O)Nc3ccccc3F)n2Cc2ccccc2F)n(C)c1=O -1.27%
COc1ccc(CNC(=O)C(=O)NCC(c2ccco2)S(=O)(=O)c2ccc(Cl)cc2)cc1 (stereo unspecified) -6.86%
Cc1nc(-c2ccc(Cl)cc2)sc1CCNC(=O)C(=O)Nc1ccc2c(c1)OCO2 1.64%
Cc1ccc(NC(=O)c2ccc3c(c2)NC(=O)c2ccccc2S3)c(Cl)c1 -6.57%
CCOc1ccccc1Nc1sc(C(=O)c2ccccc2)c(N)c1C(=O)Nc1ccc(F)cc1 -11%
CC(C)COc1ccc(C(=O)N2CCCCC2CCN2CCOCC2)cc1 (stereo unspecified) 14.2%
COc1ccc(OC)c(CCNC(=O)c2nc(-c3ccc(Cl)cc3)n3c2CCCCC3)c1 2.7%
Cc1cccc(-c2nn(C(=S)Nc3ccccc3)cc2-c2ccnc3ccccc23)n1 10%
Cc1c(C)n(Cc2ccc(Cl)cc2)c2ccc(C(=O)N3CCN(c4ccccc4F)CC3)cc12 4.88%
Cc1ccc(C(=O)c2oc3ccccc3c2NC(=O)COc2ccc(Cl)c(C)c2)cc1 0.313%

Reference: PubChem BioAssay AID1963576 (National Center for Advancing Translational Sciences (NCATS), 2024)
